According to patent publication US20250332227A1, “PEROXIDASE BASED BIOCONTROL AGENTS” (ACIES BIO D.O.O., priority 2022, published 2025):

Molecular target: bovine lactoperoxidase LpoPOX, commercial, SEQ ID NO: 16 (Bos taurus, UniProt P80025)

With [I-].[K+] [iodide] the Vmax (KI 0.03-4 mM, 0.1 mM H2O2, 100 μM thymol blue, phosphate pH 7.2, room temperature, sigmoidal fit) was 0.0025 µmol/min, the kcat (KI 0.03-4 mM, 0.1 mM H2O2, phosphate pH 7.2, room temperature) was 16.5 s⁻¹ and the kcat/K0.5 (KI, 0.1 mM H2O2, pH 7.2) was 12500 M⁻¹ s⁻¹.
